From PMC12040169 (PLOS Biology, 2025)
This is one part of the list.

Tested on: T1, C. trachomatis L2/434/Bu expressing GFP (CTL2-GFP)
T1 construct: L2/434/Bu GFP intracellular growth in HeLa cells
Parameters: species or system HeLa; C. trachomatis total inclusion area by high-content imaging, normalised to DMSO
Conditions: total inclusion area; 28.5 h, 10 µM; inhibitor
How it was run: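 High-content imaging followed the bulk GFP/resorufin measurement: fixed, Hoechst-stained cells were scored for GFP inclusions and host nuclei per well. Total inclusion area and count served as growth proxies, nuclei number as the viability proxy. MIC calculation matched the bulk assay.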

Compound	% of control remaining
CCOC(=O)c1c(NC(=O)Cn2cnc([N+](=O)[O-])n2)sc2c1CCCC2 [CBK262583]	110.156
CC(C)CS(=O)(=O)Nc1ccc(F)cc1F [CBK020615]	104.88
CN(Cc1ccccc1)S(=O)(=O)c1ccccc1[N+](=O)[O-] [CBK261458]	117.077
CCCCn1nc(Cn2cncn2)nc1CC1NC(=O)c2ccccc21 (stereo not drawn) [CBK307395]	70.7859
Cc1ccc(Cn2ncc3c(C(=O)N4CCC(N(C)S(C)(=O)=O)CC4)cc(C)nc32)cc1 [CBK298280]	123.978
Fc1ccc(C2CCc3n[nH]cc3C2)cc1 (stereo not drawn) [CBK015957C]	115.893
O=C(COc1ccccc1Cl)Nc1nnc[nH]1 [CBK287946]	87.0293
O=C(Cn1cnc2ccccc2c1=O)Nc1cccc(-c2cnc3ccccc3n2)c1 [CBK270020]	92.6201
COc1ccc(C(CC(=O)O)NC(=O)c2ccc(Cl)cc2Cl)cc1 (stereo not drawn) [CBK269131]	94.8129
Cc1ccc(S(=O)(=O)Nc2ccc(Nc3nc(-c4ccccc4)cn4ccnc34)cc2)cc1 [CBK037303]	120.31
CN1CCN(S(=O)(=O)c2ccc(NC(=O)Cc3ccc([N+](=O)[O-])cc3)cc2)CC1 [CBK268161]	101.45
CN(C(=O)NC1CCN(Cc2cccc(O)c2)CC1)C1CCS(=O)(=O)C1 (stereo not drawn) [CBK306538]	61.8366
Cc1cc(NCC2CCCO2)n2ncc(-c3ccccc3)c2n1 (stereo not drawn) [CBK304530]	59.3149
COc1ccccc1N1CCN(C(=O)C2CC2C)CC1 (stereo not drawn) [CBK091496]	123.648
Cc1ccc(NC(=O)CCC(=O)N2CCC3(CC2)CC(=O)c2ccccc2O3)cc1 [CBK156524]	85.8889
O=C(Oc1ccc(N(C(=O)c2ccncc2)S(=O)(=O)c2cccc3cccnc23)c2ccccc12)c1ccncc1 [CBK266915]	61.3048
COC(=O)c1cn([C@H]2CO[C@H]3[C@@H]2OC[C@@H]3NC(=O)C2CC2)nn1 [CBK289497]	123.02
O=C(CN1C(=O)c2ccccc2C1=O)Nc1cccc(C(=O)O)c1 [CBK287040]	104.323
O=C(Nc1cccc(N2CCNCC2)c1)c1cnccn1 [CBK029470T]	105.609
CC(=O)Nc1ccc(-c2cc(Nc3cccc(N(C)C)c3)ncn2)cc1 [CBK091017]	135.566
Cc1ccnn1CCNC(=O)CCc1ccc(Cl)cc1 [CBK283182]	75.0661
O=C(CN1C(=O)CCC1=O)NCCc1ccccc1 [CBK262326]	91.5601
COc1ccc(Br)cc1CN1CCN(Cc2cccc([N+](=O)[O-])c2)CC1 [CBK263347]	108.562
CC(C)(C)OC(=O)N1CCN(c2ccc(N)c3ccccc23)CC1 [CBK003162]	74.303
COc1ccc(OCCCCCN2CCC3(CC2)OCCc2c3[nH]c3ccccc23)cc1 [CBK113517T]	0.5251
O=C(Cc1c[nH]c2ccccc12)N1CCCC1c1cccc(Cc2ccccc2F)n1 (stereo not drawn) [CBK285799]	95.2858

Compound	% of control remaining
CC(C)CC1(C(CN2C(=O)c3ccccc3C2=O)C(=O)NO)CCN(CCc2ccccc2)C1=O (stereo not drawn) [CBK013029]	50.2609
O=C(c1ccccc1)c1ccc(CNC(=O)C2(c3ccccc3)CCCC2)cc1 [CBK161526]	80.7284
COc1ccc2oc(C(=O)NC(C)(C)CN3CCCCC3)cc2c1 [CBK282053]	108.209
CC(C)Nc1nccnc1OCCN1CCOCC1 [CBK113410]	73.6891
CCOC(=O)N1CCN(C(=O)c2oc3ccccc3c2C)CC1 [CBK023696]	64.2632
CCCC1CCN(CC2C=Cc3cc(-c4ccc(S(C)(=O)=O)cc4)ccc3O2)CC1 (stereo not drawn) [CBK158647]	99.9196
Clc1ccc(COc2nccnc2N2CCN(CCOc3ccccc3)CC2)cc1Cl [CBK083091T]	63.6281
Cc1ccc(-n2nnnc2SCC(=O)O)cc1 [CBK287048]	92.7375
COc1cccc(CN2CCN(Cc3ccco3)[C@@H](C)C2)c1 [CBK284265]	51.4716
CC(C)NC(=O)N[C@H]1CC[C@]2(CC1)CC(=O)c1ccccc1O2 [CBK283389]	83.544
COc1ccc(NC(=O)c2cc([N+](=O)[O-])ccc2N2CCN(C)CC2)cc1 [CBK263017]	78.0393
CC1CCCC(C)N1C(=O)Cn1cnc2c(Cl)cc(Cl)cc2c1=O (stereo not drawn) [CBK306222]	92.6958
O=C(CCS(=O)(=O)c1ccccc1)N(Cc1cccnc1)c1nc2c(F)cccc2s1 [CBK294422]	92.0574
CNC(=O)c1ccc(-c2cccc(COC)c2)nc1NCC1CC1 [CBK106322]	121.267
Cc1ccc2cc(C3CC(c4ccccc4)=NN3C(=O)CCC(=O)O)c(=O)[nH]c2c1 (stereo not drawn) [CBK296127]	100.805
CCC(=O)N[C@H]1CC[C@]2(CC1)CNC(=O)c1ccccc1O2 [CBK281681]	55.6673
CCCNC(=O)CN(C)Cc1cn2cccc(C)c2n1 [CBK304800]	105.374
CCOc1ccc(-c2csc(NC(=O)c3cccnc3)n2)cc1 [CBK094747]	82.087
Fc1ccc([C@@H]2CN(Cc3ccccn3)C[C@H]2c2cc[nH]n2)cc1 [CBK285416]	75.0816
O=C(O)CCc1ccc(-c2ccc(Br)cc2)n1-c1ccccc1O [CBK131892]	83.5849
CC(C)CNC(=O)N(CCc1ccccc1)Cc1ccccc1 [CBK155339]	114.298
Cc1cc(Nc2ccccc2C)c2cc(C(=O)O)ccc2n1 [CBK269458C]	89.9431
Cc1[nH]nc(Nc2ccc(C(=O)O)cc2)c1[N+](=O)[O-] [CBK262726]	104.993
COCCn1cnnc1C(C)NC(=O)N(C)Cc1nc2ccccc2s1 (stereo not drawn) [CBK307427]	68.0855
COC(=O)c1cc(CN2CCCN(S(=O)(=O)c3ccc(-n4cnc(Cl)c4Cl)cc3)CC2)cn1C [CBK063080]	18.8957
